Measured values from PubChem BioAssay AID1347120 (National Center for Advancing Translational Sciences (NCATS), 2019).
Among all 390,000 compounds or so, about 930 (0.24%) were called active. The inconclusive results got no clear call from the source; some entries with a clear call stand among them for comparison. The call rests on the fitted dose curve; in most records, active means well fitted activation curve with a large enough effect; inconclusive means small, poorly fitted or top-dose-only effect; inactive means no such curve, though single readings can be large or run the other way. A potency beside an inconclusive call is a rough fit, not a confirmed value.

Test: qHTS for Suppressors of FUS Proteinopathy: Primary screen using FUS-linked yeast assay; further: nearly all actives have a fitted effect of over 55% in size;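 on growth rescue (activation): plate controls were DMSO vehicle for no effect and reference control for full effect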
Details: S. cerevisiae FUS-expressing, OD600, 24 h; Potency: growth rescue; growth rescue (activation): at 76.6 µM (top of the series)
Procedure, shortened: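 Yeast expressing FUS under galactose induction, OD 0.005 in 2% galactose medium; compounds in a dilution series, 24 h at 30C. Growth rescue by absorbance at 600 nm; CP55940 positive control, DMSO negative.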
Potency means the concentration at half of the fitted maximal effect; tags describe the fitted curve by direction and shape.

Compound	growth rescue (activation)	Potency
Cc1[nH]c2ccccc2c1C(c1ccccc1)c1ccc(Cl)s1 (stereo unspecified)	inactive: -3.6%	–
O=c1c(-c2cc3ccccc3[nH]2)nc2ccccc2n1C(CCc1ccccc1)c1nc2ccccc2[nH]1 (stereo unspecified)	–	inconclusive: 15.8 µM [activator, partial curve, poor fit]
CCOc1ccc(C(=O)N2CCN(c3cccc(C)c3C)CC2)cc1	–	inconclusive: 28.2 µM [activator, partial curve, poor fit]
COc1cccc(C2CC(C(F)(F)F)n3ncc(C(=O)O)c3N2)c1 (stereo unspecified)	inconclusive: 63.1% [activator]	–
CCOC(=O)[C@@]12CCC3=C1N(CCC3)C(=O)[C@H](CC(=O)NCCCOC)C2	inactive: -6.83%	–
COc1cccc(NS(=O)(=O)c2ccc3c(c2)[C@H]2C=CC[C@H]2[C@@H](c2ccccc2Cl)N3)c1	–	inconclusive: 35.5 µM [activator, single point]
Cc1nn(-c2ccccc2)c(Cl)c1C(=O)NNC(=O)c1ccccc1O	–	inconclusive: 14.1 µM [activator, partial curve]
CCOc1ccc(C(=O)OCC(=O)NCc2ccco2)cc1OCC	–	inconclusive: 5.01 µM [activator, full curve, poor fit]
CCN(CC)C(=O)COc1ccc(S(=O)(=O)N2CCOCC2)cc1	inactive: 12.8%	–
COc1ccc(S[C@]2(C(=O)N3CCN(c4ncccn4)CC3)CC(=O)N[C@@H]2c2ccc(OC)cc2)cc1	inactive: 29.4%	–
CCOc1ccc(CCNC(=O)c2nc(-c3cccc(F)c3)n3c2CCCCC3)cc1OCC	–	inconclusive: 28.2 µM [activator, single point]
CCN1CCN(S(=O)(=O)c2ccc(Cl)c(C(=O)N(CCc3ccccc3)Cc3ccccc3)c2)CC1	–	inconclusive: 12.6 µM [activator, partial curve, poor fit]
Cc1ccc(S(=O)(=O)N2CCOCC2)cc1NC(=O)COc1ccc(C(=O)c2ccccc2)cc1	–	inconclusive: 44.7 µM [activator, single point]
CN(c1nc2c(c(=O)n(C)c(=O)n2C)n1CC(=O)c1ccccc1)C1CCCCC1	–	inconclusive: 8.91 µM [activator, partial curve]
O=C(O)c1ccc(OS(=O)(=O)c2ccc(Cl)s2)cc1	inactive: 1.54%	–
CCOc1ccc(CCN2C(=O)C(=O)N([C@@H](Cc3ccc(O)cc3)CN3CCC[C@H]3CN3C(=O)C(=O)NC[C@@H]3Cc3ccccc3)C[C@@H]2Cc2ccc(O)cc2)cc1	–	inconclusive: 12.6 µM [activator, partial curve, poor fit]
Cc1cc(NC(=O)CSc2nc(-c3cccnc3)ccc2C#N)no1	inconclusive: 68.2% [activator]	–
COc1ccc(-c2cc(NC=O)c3ncc(-c4ccc(C(C)=O)cc4)n3c2)cc1OC	–	inconclusive: 28.2 µM [activator, single point]
Cc1ccccc1NC(=O)c1c(NC(=O)c2ccco2)sc2c1CCC(C(C)(C)C)C2 (stereo unspecified)	inactive: -4.92%	–
NNc1ncnc2scc(-c3ccc(Cl)cc3)c12	inactive: 28.1%	–
CC(CNC(=O)CN1C(=O)COc2ccc(S(=O)(=O)N3CCCCCC3)cc21)c1ccccc1 (stereo unspecified)	inactive: 40.1%	–

Compound	growth rescue (activation)	Potency
COc1cc(CNCc2ccncc2)cc(Br)c1OCc1ccccc1F	inactive: 45.2%	–
COc1cccc(NC(=O)c2oc3ccccc3c2NC(=O)c2ccc(F)c(F)c2)c1	inactive: -18.2%	–
COc1cccc(C2c3[nH]c4ccccc4c3C[C@H]3C(=O)N(c4ccccc4C(=O)N4CCC(C(=O)O)CC4)C(=O)N23)c1 (stereo partly specified)	–	active: 28.2 µM
COCCn1c(C)cc(C(=O)COC(=O)c2ccc(NC(=O)CC#N)cc2)c1C	–	inconclusive: 50.1 µM [activator, single point]
O=C(NC1CCCCC1)C(c1ccc2ncccc2c1)N(Cc1ccccc1)C(=O)c1ccc2c(c1)OCCO2 (stereo unspecified)	–	inconclusive: 25.1 µM [activator, single point]
COc1ccc(-c2n[nH]c(C)c2-c2cnn(-c3ccccc3)c2)c(O)c1	–	inconclusive: 17.8 µM [activator, partial curve, poor fit]
CCCCOC(=O)c1ccc(OC(=O)c2cccnc2)cc1	inactive: 4.94%	–
O=[N+]([O-])c1cc(S(=O)(=O)NC2=NCCCCC2)ccc1NCC1CCCCC1	–	inconclusive: 50.1 µM [activator, single point]
O=C(/C=C/c1ccccc1)N/C(=C/c1ccccc1)C(=O)Nc1ccc(C(=O)O)cc1	–	inconclusive: 15.8 µM [activator, partial curve, poor fit]
COC(=O)/C(=C(/F)Sc1cc(C)c(O)c(C)c1)C(F)(F)F	–	inconclusive: 50.1 µM [activator, single point]
CCc1ccc(C(=O)c2cn(CC(=O)Nc3cc(OC)ccc3OC)c3nc(C)ccc3c2=O)cc1	–	active: 35.5 µM
COc1cccc(NC(=O)CN(C)C(=O)c2cccc(S(=O)(=O)N3c4ccccc4CC3C)c2)c1 (stereo unspecified)	–	active: 22.4 µM
Cc1cc(N2C(=O)Cc3ccccc3C2=O)ccc1C(C)C	–	inconclusive: 35.5 µM [activator, partial curve]
CCOc1cc(N2CCOCC2)c(OCC)cc1NC(=O)c1ccc(-n2ccnc2)c([N+](=O)[O-])c1	–	inconclusive: 5.62 µM [activator, partial curve]
CCOc1ccc2nc(NC(=O)c3nc(SCc4ccccc4C)ncc3Cl)sc2c1	–	inconclusive: 35.5 µM [activator, single point]
Cc1ccc(-n2c(SCC(=O)c3ccc4ccccc4c3)nnc2-c2cccnc2)cc1	–	inconclusive: 17.8 µM [activator, partial curve]
Cc1cc(C(O)c2ncc(-c3ccc(Oc4ccccc4)cc3)[nH]2)ccc1F (stereo unspecified)	–	inconclusive: 39.8 µM [activator, partial curve, poor fit]
COc1cc(NC(=O)COc2ccccc2Cl)ccc1NC(=O)c1cccs1	–	inconclusive: 15.8 µM [activator, partial curve, poor fit]
O=C(Cc1ccc(S(=O)(=O)N2CCOCC2)s1)Nc1ccc2c(c1)CCC2	inactive: 42.1%	–
CCO[C@H]1OC(C(=O)Nc2ccccc2)=C[C@@H](c2ccc(Br)cc2)[C@@H]1CCCO	–	inconclusive: 31.6 µM [activator, single point]
CC1Nc2ncnc(N3CCc4ccccc4C3)c2N(Cc2ccc(Br)cc2)C1=O (stereo unspecified)	–	inconclusive: 50.1 µM [activator, single point]

Compound	growth rescue (activation)	Potency
O=C(NN1C(=O)C2C(c3ccccc3)C=CC(c3ccccc3)C2C1=O)c1cccc(Br)c1 (stereo unspecified)	–	inconclusive: 12.6 µM [activator, partial curve]
COc1ccccc1-c1cc(NC=O)c2ncc(-c3ccc(F)cc3)n2c1	–	inconclusive: 50.1 µM [activator, single point]
Cc1cc(OCCCC(=O)NCCc2nnc3ccccn23)ccc1Cl	–	inconclusive: 31.6 µM [activator, single point]
COc1ccc(C#Cc2cccc(-c3nc(C(=O)NCc4ccc(Oc5ccccc5)cc4)cc4c3[C@@H](CCO)N(S(=O)C(C)(C)C)C4)c2)cc1OC (stereo partly specified)	–	inconclusive: 44.7 µM [activator, partial curve, poor fit]
CN(c1ccc(OCC(=O)OCC(=O)Nc2c(F)c(F)c(F)c(F)c2F)cc1)S(=O)(=O)c1ccc(F)cc1	–	inconclusive: 50.1 µM [activator, single point]
CCCC(=O)Nc1sc(C(=O)Nc2cccc(N)c2)c(C)c1C(=O)OC	–	inconclusive: 25.1 µM [activator, single point]
Cc1ccc(OCc2nnc(SCc3nc4ccccc4[nH]3)n2Cc2ccco2)cc1	–	inconclusive: 39.8 µM [activator, single point]
COC(=O)CC1N(S(=O)(=O)c2ccc(C)cc2)c2ccccc2C1(C(=O)OC)C(=O)OC (stereo unspecified)	–	inconclusive: 35.5 µM [activator, single point]
C[C@H]1[C@H](C)CC[C@]2(C(=O)O)CC[C@]3(C)C(=CC[C@@H]4[C@@]5(C)C[C@@H](O)[C@H](O)C(C)(C)[C@@H]5CC[C@]43C)[C@H]12	–	inconclusive: 35.5 µM [activator, single point]
CC(C)CN1CCc2nc(Nc3ccc(F)cc3F)ncc2C1	inactive: -6.03%	–
Cc1c(C)n(Cc2ccccc2)c2ccc(C(=O)N3CCN(c4ccc(F)cc4)CC3)cc12	–	inconclusive: 31.6 µM [activator, single point]
COc1ccc(OC)c(NC(=O)C(C)OC(=O)c2cc3ccccc3[nH]2)c1 (stereo unspecified)	inactive: 0.43%	–
COc1ccc2c(c1)c(C(=O)CNc1nc(C)cs1)c(C)n2C	–	inconclusive: 2.82 µM [activator, full curve]
O=C(Nc1ccccc1Oc1ccccc1)c1ccc(Br)o1	inactive: -23.6%	–
Cc1ccc(S(=O)(=O)N2C[C@@H](C)[C@]3(C2)[C@H](O)[C@H](OC(=O)NCc2ccccc2F)C[C@H]2C(=O)N(c4ccccc4)C(=O)[C@H]23)cc1	–	inconclusive: 17.8 µM [activator, partial curve, poor fit]
CCN(CC)S(=O)(=O)c1ccc2c(c1)N(CC(=O)N1CCN(c3ccc(OC)cc3)CC1)C(=O)CO2	–	inconclusive: 15.8 µM [activator, partial curve]
CCOC(=O)c1c(C)n(C)c2ccc(OCC(O)CN3CCCCCC3)cc12 (stereo unspecified)	inactive: 14.6%	–
CCCN(CCC)S(=O)(=O)c1cccc(-c2csc(C)n2)c1	–	inconclusive: 56.2 µM [activator, partial curve, poor fit]
CC(C)(C)C(=O)N1CCc2cc(-c3csc(N)n3)ccc21	–	inconclusive: 50.1 µM [activator, partial curve, poor fit]
